# In PubChem BioAssay AID1963426 (Molecular Pharmacology Branch, DTP, NCI, 2024):
# Some entries of the source have several records that differ or are many. Only these are listed. The source may hold further records. The records of an entry are repeats across runs, samples, wells, individuals or studies. Signs of the kind (2×) stand for listed records that agree. Dates in brackets are months of testing.
# Test system: 186277-243-T-J2-PDC complex spheroid growth, % test/control
# Assay: Anticancer human tumor 186277-243-T-J2-PDC patient-derived colon adenocarcinoma cell line growth inhibition [Asc]
# Conditions: for viability, T/C: stronger effect = lower value
# Procedure: Multicellular complex tumor spheroid response to apoptosis pathway targeting inhibitors Alrizomadlin, Pelcitoclax, and Dasminapant in combination with a variety of drugs and investigational agents in selected tumor cell lines
# The MDM2 inhibitor alrizomadlin, the Bcl-2/Bcl-xL inhibitor pelcitoclax, and the IAPs inhibitor dasminapant were evaluated both individually and in combination with standard of care and investigational anticancer small molecules within a complex spheroid model of solid tumors. . Complex spheroids include a stromal component modeled by human endothelial cells (HUVEC) and fibroblasts modeled by human mesenchymal stem cells (MSCs). The concentration ranges selected for each drug and investigational agent were based upon clinically achievable concentrations if the clinical Cmax of the agent was known.
# Compounds. The drugs and investigational agents: alrizomadlin (APG-115; NSC831270), pelcitoclax (APG-1252; NSC835773), dasminapant (APG-1387;NSC834197), TAK-243 (NSC785004), copanlisib (NSC809693), olaparib (NSC753686), talazoparib (NSC767125), cobimetinib (NSC 768068), eltanexor (KPT-8602, NSC 794443), abemaciclib (NSC 768073), sotorasib (NSC818433), adagrasib (NSC 831453), MRTX-1133 (NSC 836407), Iadademestat (ORY1001, NSC 806812), and RMC-4630 (NSC839698), were obtained from the NCI Developmental Therapeutics Program Chemical Repository. The FDA-approved anticancer drug set is available from the Developmental Therapeutics Program at https://dtp.cancer.gov/organization/dscb/obtaining/available plates.htm. […] The stock solutions were prepared in dimethyl sulfoxide (DMSO, Sigma-Aldrich, St. Louis, MO, cat. D2650) at 800-fold the tested concentration and stored at -70 degrees C prior to their use. All drugs and investigational agents were tested over a range starting from a high concentration at or near the clinical Cmax and decreasing in half-log increments. If the clinical Cmax for an agent had not been determined, the highest concentration tested was 10 microM.
# The patient-derived cancer (PDC) cell lines include five colon adenocarcinomas: 186277-243-T-J2-PDC, 616215-338-R-J1-PDC, 439559-082-T-J2-PDC, 463943-066-T-J2-PDC, and 519858-162-T-J1-PDC; three pancreatic carcinomas: 323965-272-R-J2-PDC, 521955-158-R6-J3-PDC, and 521955-158-R2-J5-PDC; two uterine sarcomas: 327498-152-R-J2-PDC and 993429-296-R-J1-PDC; two rhabdomyosarcomas: 755483-174-R-J1-PDC and 772245-204-R-J1-PDC; two soft tissue sarcomas: 126254-015-R-J1-PDC and 494315-158-R-J1-PDC; two malignant fibrous histiocytomas: 317291-083-R-J1-PDC and 596521-263-R-J1-PDC; two breast carcinomas: 171881-019-R-J1-PDC and 885512-296-R-J2-PDC; and one ovarian carcinoma: 6556581-035-R-J-PDC were obtained from the NCI PDMR, (https://pdmr.cancer.gov). The established cell lines HSSY-2 synovial sarcoma (RRID:CVCL 8719), SYO-1 synovial sarcoma (RRID:CVCL_7146), MPNST malignant peripheral neural sheath tumor were obtained from the Sloan Kettering Institute. The following established cell lines were purchased from the American Type Culture Collection (ATCC, Manassas, VA), Sor the received from the NCI repository:, PANC-1 pancreatic carcinoma (CRL-1469, RRID:CVCL_0480), OVCAR-5 ovarian carcinoma (RRID:CVCL_1628), OVCAR-8 ovarian carcinoma (RRID:CVCL_1629), , MCF-7 breast carcinoma (CRL-12584, RRID:CVCL_0031), MDA-MB-231 breast carcinoma (CRL-12532, RRID:CVCL_0062), NCI-H1876 small cell lung carcinoma (CRL-5902, RRID:CVCL_1503), NCI-H510A small cell lung carcinoma (HTB-184, RRID:CVCL_1565), NCI-H1417 (CRL-5869, RRID:CVCL_1469), and NCI-H196 small cell lung carcinoma (CRL-5823, RRID:CVCL_1509). Dr. Peter Houghton (Greehey Children's Cancer Research Institute, University of Texas Health Science Center, San Antonio, TX) provided Rh-18 rhabdomyosarcoma (RRID:CVCL_1659). Pooled donor human umbilical vein endothelial cells (HUVEC, Lonza, cat. CC-2519) and human mesenchymal stem cells (hMSC, Lonza, cat. PT-2501) were purchased from Lonza (Walkersville, MD).
# Cell Culture. […]
# 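Also: spheroids exposed to agents for 7 days.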
# 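For viability, T/C in this document: 100% = DMSO vehicle control wells.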
smiles,measurement,setting,value
C=C(F)C(=O)N1CCN(c2nc(OCC3CCCN3C)nc3c2CCN(c2cccc4cccc(Cl)c24)C3)CC1CC#N (stereo unspecified),"viability, T/C",compound alone 10 µM,"3.94%, 5.48% [2022-09] and 46.3% [2022-10]"
Cc1c(S(C)(=O)=O)c(-c2cc(F)cc(N3CCN(c4ccc(NS(=O)(=O)c5ccc(NC(CCN6CCC(C(=O)OCCCP(=O)(O)O)CC6)CSc6ccccc6)c(S(=O)(=O)C(F)(F)F)c5)cc4)CC3)c2)c(-c2ccc(Cl)cc2)n1C(C)C (stereo unspecified),"viability, T/C",compound alone 0.1 µM,"86.2, 95, 89.7, 84.1, 110, 111 (2×), 98.7, 84, 97.8 (2×), 109, 103, 104%"
same,"viability, T/C",compound alone 0.316 µM,"92.2, 103, 87.5, 79.9, 92.8, 95.3, 85.5, 84.7, 100, 95.2, 94.8, 102, 105, 109%"
same,"viability, T/C",compound alone 1 µM,"93.2, 95.6, 87.6, 94.3, 104 (2×), 97, 91.7, 120, 111, 106, 94.1, 99.3, 105%"
same,"viability, T/C",compound alone 3.16 µM,"83.9, 96.7, 97.9, 93.4, 96.4, 87.8, 93.2, 100, 102 (2×), 109 (2×), 98.2, 106%"
same,"viability, T/C",compound alone 10 µM,"90.5, 87.7, 83.9, 82.4, 94.4, 88, 92.9, 92.2, 112, 104 (2×), 105, 96.1, 103%"
CNC(C)C(=O)NC1CN(S(=O)(=O)c2cccc(S(=O)(=O)N3CCC4CCC(C(=O)NC(c5ccccc5)c5ccccc5)N4C(=O)C(NC(=O)C(C)NC)C3)c2)CCC2CCC(C(=O)NC(c3ccccc3)c3ccccc3)N2C1=O (stereo unspecified),"viability, T/C",compound alone 0.01 µM,"89.7%, 108% [2022-09] and 86.3, 93.3, 94.9 (2×), 95.7, 98.6, 101, 114, 108, 104, 103, 88.4, 94.2% [2022-10]"
same,"viability, T/C",compound alone 0.0316 µM,"90.5%, 85.6% [2022-09] and 90, 104 (2×), 115, 101 (3×), 102, 111, 99.4, 100, 106, 96.4% [2022-10]"
same,"viability, T/C",compound alone 0.316 µM,"85.5%, 106% [2022-09] and 102, 115, 104, 100, 112 (2×), 103 (2×), 114, 122, 98.9, 97, 96% [2022-10]"
same,"viability, T/C",compound alone 1 µM,"82.3%, 95.9% [2022-09] and 96.5, 98.3, 98.2, 97.3, 108, 107, 124, 101, 117, 106, 98.5, 93.9, 105% [2022-10]"
CCN1C(C(=O)NC23CCC(C(=O)O)(CC2)CC3)C(c2cccc(Cl)c2F)C2(C(=O)Nc3cc(Cl)ccc32)C12CCCCC2 (stereo unspecified),"viability, T/C",compound alone 0.03 µM,"119 (3×), 101 (2×), 120, 109, 95, 105 (2×), 125, 107, 108, 121% [2022-09] and 123% [2022-10]"
same,"viability, T/C",compound alone 0.0949 µM,"99.3, 102 (2×), 100, 82, 83.9, 80.2, 93.3, 91.8, 90.4, 95.1, 95, 82.1, 84.9% [2022-09] and 140% [2022-10]"
same,"viability, T/C",compound alone 0.3 µM,"74.8, 63.1, 81.8, 70, 76.9, 73.7, 78, 75.3, 80.2, 72.3, 79.2, 57.6, 71.8, 90.2% [2022-09] and 130% [2022-10]"
same,"viability, T/C",compound alone 0.949 µM,"50.7, 45.4, 51.1, 51.2, 51.6, 55.5, 57.3, 58.8, 55.8, 56.1, 56.6, 38.1, 50.2, 72% [2022-09] and 89.5% [2022-10]"
same,"viability, T/C",compound alone 3 µM,"30.5, 28.3, 31, 26.6, 31.9 (2×), 29.2, 30, 36.8, 37.9, 35.6, 24.1, 30.4, 34.9% [2022-09] and 52.1% [2022-10]"
same,IC50,"compound alone, run of 09/27/2022","990 nM, 616 nM, 1.1 µM, 856 nM, 1.16 µM, 1.27 µM, 1.47 µM, 1.4 µM, 1.19 µM, 1.38 µM, 475 nM, 860 nM"
